Hit rate of the full screen: of about 360,000 compounds, about 520 (0.14%) were called active. Inconclusive means that the source gave no clear call. Such entries were picked first, then a sample of the others. The call rests on the fitted dose curve; in most records, active means well fitted inhibition curve with a large enough effect; inconclusive means small, poorly fitted or top-dose-only effect; inactive means no such curve, though single readings can be large or run the other way. No potency is given beside an inconclusive call; the fits are too rough.
molecular target: Rap guanine nucleotide exchange factor 3 (Homo sapiens) (UniProt O95398); assay: qHTS for Antagonist of cAMP-regulated guanine nucleotide exchange factor 3 (EPAC1): primary screen; conditions: EPAC1 GEF assay, Rap1b-BODIPY-GDP exchange fluorescence; series mostly up to 115 µM; further: nearly all actives have a fitted effect of over 50% in size
Description: In multi-cellular eukaryotic organisms, the effects of cAMP are transduced by two ubiquitously-expressed intracellular cAMP receptors, the classic protein kinase A/cAMP-dependent protein kinase (PKA/cAPK) and the more recently discovered exchange protein directly activated by cAMP/cAMP-regulated guanine nucleotide exchange factor (EPAC/cAMP-GEF). Both PKA and EPAC are ubiquitously expressed in all tissues, and an increase in intracellular cAMP levels will lead to the activation of both PKA and EPAC. Therefore, careful dissections of the individual role and relative contribution of EPAC and PKA within the overall cAMP signaling in various model systems are critical for further elucidating the mechanism of cAMP signaling. To date no EPAC-specific antagonists and agonist, as well as isoform-specific agonists have been reported, and developing EPAC-specific pharmacological probes to determine the physiological functions that EPAC play in the overall cAMP-mediated signaling remains a major challenge within the research field. Furthermore, identified regulators of EPAC may lead to new mechanism-based therapeutic strategies specifically targeting the EPAC / cAMP-signaling components as EPAC has been implicated to play important roles in major human pathological conditions such as diabetes, heart disease, and cancer. This qHTS will be used to screen the Molecular Libraries Small Molecule Repository (MLSMR) as a concentration-titration series using the NCGC unique quantitative screening (qHTS) platform to find inhibitors for EPAC1. In addition, this assay will also be used as a counterscreen for the EPAC2 qHTS. This fluorescent based assay is developed and validated for EPAC1 that measures exchange using EPAC effector Rap1 complex with BODIPY-GDP, a GDP analog with a tethered fluorophores. Inhibitors are identified by monitoring the change in fluorescence signal as the exchanged free BODIPY-GDP has a reduced fluorescence compared to Rap1-bound BODIPY-GDP. Decrease in signal (inhibition) is the desired outcome for the EPAC1 antagonist while no activity in this assay is desired for the EPAC2 antagonist counterscreen. de Rooij, J., Zwartkruis, F. J., Verheijen, M. H., Cool, R. H., Nijman, S. M., Wittinghofer, A., and Bos, J.L. (1998) Nature 396, 474-477 [2] Kawasaki, H., Springett, G. M., Mochizuki, N., Toki, S., Nakaya, M., Matsuda, M., Housman, D. E., and Graybiel, A. M. (1998) Science 282, 2275-2279 NIH Chemical Genomics Center [NCGC] NIH Molecular Libraries Probe Centers Network [MLPCN] MLPCN Grant: NS066510 Assay Submitter (PI): Xiaodong Cheng, The University of Texas, Medical Branch
Briefly, three uL of reagents (100 nM EPAC1, 250 nM RAP1B-BODIPY-GDP, 50 uM GDP) were dispensed into a 1536-well Greiner black solid-bottom medium binding assay plate. Controls and test compounds (23 nL) were transferred to the plate via a Kalypsys pin tool equipped with a 1536-pin array. The plates were centrifuged at 1,000 rpm for 15 seconds followed by 5 minute incubation at room temperature. The assay plates were read at 5 minute intervals for 30 minutes in the ViewLux plate reader using 480nm excitation and 540nm emission filters. The results were normalized to the […] positive control ATA and DMSO.
Potency means the concentration at half of the fitted maximal effect; tags describe the fitted curve by direction and shape.

UniProt O95398, sequence (O95398 whole entry, looked up): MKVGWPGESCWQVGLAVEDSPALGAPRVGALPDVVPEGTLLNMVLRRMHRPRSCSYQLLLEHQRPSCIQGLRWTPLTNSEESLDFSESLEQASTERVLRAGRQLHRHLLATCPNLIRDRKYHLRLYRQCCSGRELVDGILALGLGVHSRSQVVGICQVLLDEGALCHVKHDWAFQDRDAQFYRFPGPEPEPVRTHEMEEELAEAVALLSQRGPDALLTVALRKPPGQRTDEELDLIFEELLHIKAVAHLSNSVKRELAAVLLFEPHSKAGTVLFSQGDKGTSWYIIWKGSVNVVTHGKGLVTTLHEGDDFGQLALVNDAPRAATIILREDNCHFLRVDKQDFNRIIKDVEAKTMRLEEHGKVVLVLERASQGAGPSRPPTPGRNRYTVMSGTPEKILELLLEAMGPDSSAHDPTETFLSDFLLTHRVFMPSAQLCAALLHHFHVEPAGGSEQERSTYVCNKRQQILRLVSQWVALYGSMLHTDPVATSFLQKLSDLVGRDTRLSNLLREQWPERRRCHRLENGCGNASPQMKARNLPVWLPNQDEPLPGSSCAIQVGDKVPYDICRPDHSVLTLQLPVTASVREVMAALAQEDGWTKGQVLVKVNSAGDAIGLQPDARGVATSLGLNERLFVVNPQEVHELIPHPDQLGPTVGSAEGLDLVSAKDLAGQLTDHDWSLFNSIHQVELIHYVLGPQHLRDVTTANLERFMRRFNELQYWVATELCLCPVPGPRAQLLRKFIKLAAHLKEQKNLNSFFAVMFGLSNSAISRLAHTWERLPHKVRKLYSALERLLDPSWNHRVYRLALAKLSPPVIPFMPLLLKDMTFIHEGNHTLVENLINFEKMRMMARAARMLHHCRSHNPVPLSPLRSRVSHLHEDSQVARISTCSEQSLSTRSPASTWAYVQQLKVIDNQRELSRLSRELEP

Row | Structure (SMILES) | Potency
1 | CCOC(=O)c1ccc(NC(=O)c2nc[nH]c2C(=O)NCC(=O)OC(C)(C)C)cc1 | inconclusive [inhibitor, full curve]
2 | Cn1c(CN2CCCC2)nc2cc(NS(=O)(=O)c3ccccc3)ccc21 | inconclusive [inhibitor, single point]
3 | COC(=O)[C@]12CCCCC=C1N(Cc1ccco1)C(=O)[C@H](CC(=O)N1CCSCC1)C2 | inconclusive [inhibitor, partial curve]
4 | CC12CCC(=O)N1C(C(=O)Nc1nnc(SCc3ccccc3)s1)CS2 (stereo not drawn) | inconclusive [inhibitor, single point]
5 | O=C(O)CP(=O)(c1ccccc1)c1ccccc1 | inconclusive [inhibitor, single point]
6 | NS(=O)(=O)c1cccc(NC(=O)COC(=O)c2ccccc2C(=O)c2ccccc2)c1 | inconclusive [inhibitor, single point]
7 | O=C(Cn1sc2ccccc2c1=O)Nc1ccc(Br)cc1 | inactive
8 | Cc1ccnc(SC2CC(=O)N(c3ccc(Cl)cc3)C2=O)n1 (stereo not drawn) | inconclusive [inhibitor, single point]
9 | Cc1ccc(C(=O)c2no[n+]([O-])c2C(=O)c2ccc(C)cc2)cc1 | inconclusive [inhibitor, single point]
10 | c1ccc(Cn2c(SCc3nc4ccccc4s3)nnc2-c2ccco2)cc1 | inconclusive [inhibitor, partial curve]
11 | COc1ccc(CSc2nc(O)cc(=O)n2CC(C)C)cc1F | inactive
12 | CCc1ccc(OCC(=O)NC(=S)Nc2ccc(S(=O)(=O)NC3CCCCC3)cc2)cc1 | inconclusive [inhibitor, full curve]
13 | Oc1ccc(/C(Cc2ccccn2)=N\Nc2ccccc2)c(O)c1 | inconclusive [inhibitor, single point]
14 | CC(=O)/C=N/Nc1ccccc1 | inactive
15 | O=C(Cc1cccc2ccccc12)N/N=C/c1ccc(Sc2nc3ccccc3s2)o1 | inactive
16 | CSc1ccc(C2C(C(=O)c3ccco3)=C(O)C(=O)N2c2nnc(SC)s2)cc1 (stereo not drawn) | inconclusive [inhibitor, partial curve, poor fit]
17 | O=C(Cc1ccc(Br)c2ccccc12)N/N=C/c1ccccn1 | inconclusive [inhibitor, single point]
18 | O=c1[nH][nH]c2c1[C@H](c1ccc(F)cc1)O[C@H](CCc1ccccc1)C2 | inconclusive [inhibitor, partial curve]
19 | CCN(CC)S(=O)(=O)c1ccc(Cl)c(C(=O)OCC(=O)c2c(N)n(C)c(=O)n(C)c2=O)c1 | inconclusive [inhibitor, single point]
20 | CCOC(=O)N1CCN(C(=O)c2ccc(CS(=O)Cc3ccc(C)cc3)o2)CC1 (stereo not drawn) | inconclusive [inhibitor, full curve]
21 | COc1cc(OC)c(CN2CCCN(C)CC2)cc1Br | inactive

Row | Structure (SMILES) | Potency
22 | CC(=O)c1cccc(NC(=O)CSc2ccc(-c3ccco3)nn2)c1 | inactive
23 | CC(Oc1ccc2c(-c3ccccc3)cc(=O)oc2c1)C(=O)O (stereo not drawn) | inactive
24 | NC(=O)c1ccc(Nc2ccc3c(c2)CCC3)c([N+](=O)[O-])c1 | inconclusive [inhibitor, full curve, poor fit]
25 | COc1ccc(OC)c(Nc2cc3ccccc3c(=O)[nH]2)c1 | inconclusive [inhibitor, partial curve, poor fit]
26 | CCOc1ccc(NC(=S)N2CCC(NC(=O)c3ccccc3)CC2)cc1 | inconclusive [inhibitor, single point]
27 | Cc1ccc(NC(=O)c2ccc([N+](=O)[O-])o2)cc1S(=O)(=O)N1CCOCC1 | inconclusive [inhibitor, single point]
28 | CN1CCC/C1=C1/C(=O)N(c2ccccc2)N=C1NC(=O)Nc1cccc(Cl)c1 | inconclusive [inhibitor, partial curve]
29 | Cc1ccc(NC(=O)CCNS(=O)(=O)c2cccc3nsnc23)cc1F | inconclusive [inhibitor, single point]
30 | CCOC(=O)[C@H]1[C@H]2COc3cc(OC)ccc3[C@@H]2N2C(=O)c3cc(OC)ccc3NC(=O)[C@@]12C | inactive
31 | CC[C@@H]1C(c2cccc(Cl)c2)=NN(c2ccc(Br)cc2)[C@H]1C(=O)N1CCOC1=O | inconclusive [inhibitor, partial curve]
32 | CC(C)C(=O)Nc1cccc(COc2ccccc2CN(Cc2ccccc2)C(=O)OC(C)(C)C)c1 | inconclusive [inhibitor, single point]
33 | O=C1CC(=O)Nc2cc(S(=O)(=O)Nc3ccc(Cl)c(C(F)(F)F)c3)ccc2N1 | inactive
34 | Clc1ccc(-c2nnc(-c3ccco3)nc2N2CCCCC2)cc1 | inconclusive [inhibitor, single point]
35 | Cc1nc2sc(C(c3cccs3)N3CCN(c4ccccc4)CC3)c(O)n2n1 (stereo not drawn) | inconclusive [inhibitor, single point]
36 | Cc1cccc(N(C(=O)Cn2nnc(-c3ccc(F)cc3)n2)C(C(=O)NC(C)(C)C)c2ccncc2)c1 (stereo not drawn) | inconclusive [inhibitor, single point]
37 | COC(=O)C1=C(C)N(Cc2ccccc2)C(=S)N[C@H]1c1ccccc1 | inactive
38 | CCC(C(=O)Nc1ccc(C(=O)Nc2ccccc2C(=O)O)cc1)c1ccccc1 (stereo not drawn) | inconclusive [inhibitor, single point]
39 | O=C(O)/C(CC(=O)c1ccc(Cl)cc1)=N/Nc1ccc([N+](=O)[O-])cc1[N+](=O)[O-] | inconclusive [inhibitor, single point]
40 | O=C(CN1CCN(c2cccc(C(F)(F)F)c2)CC1)Nc1cccc(C(F)(F)F)c1 | inconclusive [inhibitor, partial curve]
41 | CN(CC(=O)Nc1cccc(F)c1)C(=O)c1ccc(COc2ccccc2)cc1 | inconclusive [inhibitor, partial curve, poor fit]
42 | NS(=O)(=O)c1ccc(NC(=O)COC(=O)CCCN2C(=O)c3cccc4cccc(c34)C2=O)cc1 | inactive

Row | Structure (SMILES) | Potency
43 | Cc1cccc(CN2C(=O)N/C(=C/c3cc(C)n(-c4cc(C)ccn4)c3C)C2=O)c1 | inconclusive [inhibitor, single point]
44 | COc1cccc2cc(-c3cc(=O)oc4cc(C)c(OCC(C)=O)cc34)oc12 | inconclusive [inhibitor, full curve, poor fit]
45 | CCC(CO)NC1=CC(=O)CCC1 (stereo not drawn) | inconclusive [inhibitor, single point]
46 | Cc1cccc(Oc2sc(C(=O)c3ccccc3)c(N)c2C#N)c1C | inconclusive [inhibitor, partial curve]
47 | Oc1ccc(-c2nccc(-c3ccc(Br)cc3)n2)cc1 | inconclusive [inhibitor, single point]
48 | COc1cccc(CN(C)C(=O)c2cc(-c3ccc(OC)c(OC)c3)nc3ccccc23)c1 | inconclusive [inhibitor, partial curve]
49 | Cc1cc(NC(=O)CSCC(=O)OCC(=O)c2cccc(Br)c2)no1 | inconclusive [inhibitor, partial curve, poor fit]
50 | O=C(CSc1nnc(-c2cccnc2)n1Cc1ccco1)N1c2ccccc2Sc2ccccc21 | inactive
51 | COc1ccc(C(=O)N=c2sc3ccccc3n2C)cc1 | inconclusive [inhibitor, full curve, poor fit]
52 | CCN(CC)c1ccc(Nc2nc(-c3cccnc3)cs2)cc1 | inconclusive [inhibitor, single point]
53 | O=C(CN1c2cccc3cccc(c23)S1(=O)=O)Nc1c(F)c(F)c(F)c(F)c1F | inconclusive [inhibitor, partial curve]
54 | O=C(NCC1CCCO1)C1CCN(C(=O)c2ccc(Cl)cc2)CC1 (stereo not drawn) | inactive
55 | CC(C)c1ccc(NC(=O)Cc2cn(C)c3ccccc23)cc1 | inconclusive [inhibitor, partial curve, poor fit]
56 | CCOC(=O)C1=C(C)NC(C)=C(C(=O)OCC)C1c1ccc([N+](=O)[O-])s1 | inconclusive [inhibitor, single point]
57 | CCc1ccccc1N(CC)C(=O)C1CCN(c2ncnc3c2nc2n3CCCCC2)CC1 | inconclusive [inhibitor, full curve]
58 | CC(C)Oc1cc(NC(=O)CS(=O)CC(=O)Nc2cccc(C(F)(F)F)c2)c(Cl)cc1Cl (stereo not drawn) | inconclusive [inhibitor, partial curve]
59 | COC(=O)c1ccccc1NC(=O)c1cc[n+]([O-])cc1 | inconclusive [inhibitor, partial curve]
60 | C=CCN1C(=O)C(CC(=O)Nc2ccc(OCCC)cc2)N(CCCN2CCN(Cc3ccccc3)CC2)C1=S (stereo not drawn) | inconclusive [inhibitor, full curve, poor fit]
61 | CCOc1ccc(-c2nc(C#N)c(N3CCCCCC3)o2)cc1 | inconclusive [inhibitor, single point]
62 | COc1ccc(C(=O)NC(=S)NNC(=O)c2ccccc2C)cc1 | inactive
63 | Oc1ccccc1C1SC(c2ccccc2O)SC(c2ccccc2O)S1 (stereo not drawn) | inconclusive [inhibitor, partial curve, poor fit]

From PubChem BioAssay AID720709 (National Center for Advancing Translational Sciences (NCATS), 2013)
